Experimental data from the antibiotic and cytotoxicity screens of Wong et al. (2023).
The list shows a part of the results.

Assays:
HSkMC = human skeletal muscle cells; experiment: cytotoxicity call (relative viability < 0.9); settings: 10 µM
HepG2 = experiment: cytotoxicity call (relative viability < 0.9); settings: 10 µM
S. aureus RN4220 = experiment: growth inhibition call (relative growth <= 0.2); settings: 50 µM

Compound | cytotoxicity call (HSkMC) | cytotoxicity call (HepG2) | growth inhibition call (S. aureus RN4220)
CC(C)NC(=O)Nc1cccc2c1O[C@@H](CN(C)S(=O)(=O)c1ccccc1)[C@H](C)CN([C@@H](C)CO)C2=O | inactive | inactive | inactive
C[C@H](CO)N1C[C@H](C)[C@@H](CN(C)Cc2ccc(C(=O)O)cc2)OCCCC[C@H](C)Oc2ccc(NS(=O)(=O)c3cccs3)cc2C1=O | inactive | inactive | inactive
Cc1cc(C2(c3cc(C)c(N)c(C)c3)CCCCC2)cc(C)c1N | inactive | active | inactive
C[C@H](CO)N1C[C@H](C)[C@H](CN(C)S(=O)(=O)c2ccccc2)Oc2ncc(C#CC3(O)CCCC3)cc2C1=O | inactive | inactive | inactive
CO[C@H]1O[C@H](CO)[C@@H](OC(=O)Nc2ccccc2-c2ccccc2)[C@H](OC(=O)Nc2ccccc2-c2ccccc2)[C@@H]1OC(=O)Nc1ccccc1-c1ccccc1 | inactive | inactive | inactive
COCCN1CCN(C)C2(CCN(C(=O)[C@H]3CCCO3)CC2)C1=O | inactive | inactive | inactive
Cc1nc(C(N)=O)c(N)n1CCO | inactive | inactive | inactive
CO[C@@H]1CN(C)C(=O)c2ccc(NC(=O)CC(F)(F)F)cc2OC[C@@H](C)N(C(=O)C2CCOCC2)C[C@@H]1C | inactive | inactive | inactive
COc1ccc2c3c(n(c2c1)C)[C@@H](CO)N(C[C@]13CCN(CC1)C(=O)c1ccccc1F)C(=O)Nc1ccccc1F | active | inactive | inactive
COc1cccc(S(=O)(=O)N(C)C[C@@H]2Oc3ncc(-c4cccc(C(=O)N(C)C)c4)cc3C(=O)N([C@H](C)CO)C[C@H]2C)c1 | inactive | inactive | inactive
